# Screen size: about 71,000 compounds; about 1,800 (2.5%) were called active. Inconclusive results, whose numbers are uncertain, are shown with a selection of clear calls. The call rests on the fitted dose curve; in most records, active means well fitted activation curve with a large enough effect in the signal ratio, with a control signal flat (not every such curve was filed as active); inconclusive means small, poorly fitted or top-dose-only effect, or effect the other way, or a change in a side signal; inactive means flat fitted curve, though single readings scatter; the % refers to the signal ratio. A potency beside an inconclusive call is a rough fit, not a confirmed value.
# Experiment: Cell signaling CRE-BLA (Fsk stim); on activity change, negative = inhibition: % of control where 0% means no effect
# Conditions: CHO CRE-bla reporter (cAMP response element driving beta-lactamase), forskolin EC10, beta-lactamase ratio; activity change, negative = inhibition: at 38.2 µM (top of the series) unless noted
# How it was run: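 The 460nm/530nm emission ratio after CCF4 loading defined %Activity, from which AC50 values were obtained. CRE-bla CHO cells received compound dilution series together with an EC10 level of NKH 477 for 3 hours at 37 degrees Celsius.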
# Potency means the concentration at half of the fitted maximal effect; tags describe the fitted curve by direction and shape.
SMILES,Potency,"activity change, negative = inhibition"
Cn1c(SCc2ccon2)nc2ccccc2c1=O,"inconclusive: 15.8 µM [rising, partial curve]",–
CO[C@H]1[C@H](O[C@H]2O[C@@H](C)[C@@H](O[C@@H]3C[C@](C)(O)[C@H](O)[C@H](C)O3)[C@@H](N(C)C)[C@@H]2O)[C@@H](CC=O)C[C@@H](C)[C@@H](O[C@H]2CC[C@H](N(C)C)[C@H](C)O2)/C=C\C=C/C[C@@H](C)OC(=O)C[C@H]1O,–,inactive
c1csc(-c2ccc3ccccc3n2)c1,–,inactive
C[C@@]1(O)CCOC(=O)C1,–,inactive
Cc1ccc(S(=O)(=O)c2nc(-c3ccccc3)oc2NCc2cccnc2)cc1,"inconclusive: 25.1 µM [rising, single point]",–
CCCCNC(=O)c1ccc(N2CCOCC2)c(NS(=O)(=O)c2ccc(OC)cc2)c1,–,inconclusive: 10.7%
NCCC[C@@H](N)C(=O)O,–,inactive: -11.9% [at 7.6 µM]
COc1cccc(Nc2ncc3nc(-c4cn(C)c5ccccc45)c(=O)n(CCC#N)c3n2)c1,–,inconclusive: -4.09% [fluorescent]
CC(C)Sc1nc2c(c(=O)n1C)SC(C)C2 (configuration not stated),"inconclusive: 12.6 µM [rising, single point]",–
COc1ccc(-n2c(=O)c(-c3ccc(F)cc3)nc3cnc(OC)nc32)cc1,–,inconclusive: 6.27%
O=C(NCCc1ccc2c(c1)OCCO2)c1cc2ccccc2o1,"inconclusive: 25.1 µM [falling, single point]",–
CC1CCCCN1C(=O)CSCC(=O)Nc1nc(-c2cccs2)cs1 (configuration not stated),–,inactive
COc1cc(CN2CCN(c3cccc(C)c3C)CC2)cc(Br)c1O,–,inconclusive: 5.7% [at 7.6 µM]
Nc1c(C(=O)NCCc2ccccc2)nnn1Cc1ccccc1,"inconclusive: 25.1 µM [falling, single point]",–
CCCOc1ccc(OCCSc2ncccn2)cc1,–,inconclusive: 19.6%
CCOC(=O)c1c(C)nc2c3ccccc3ccn12,active: 7.94 µM,–
O=c1cnc2cnc(N3CCOCC3)nc2n1C[C@H]1CCCO1,–,inactive
CCOC(=O)Nc1ccc(NCc2ccc(F)cc2)nc1N,–,inactive
COC(=O)c1ccc(C(/C=C/[C@@H](C)C(=O)N[C@H](C)CO)NC(=O)OCc2ccccc2)cc1 (some centres not stated),–,inactive
CCOC(=O)c1c(NC(=O)c2cccs2)sc(C(=O)N2CCOCC2)c1C,–,inconclusive: 27.7%
COC(=O)CSc1nc(NCC(C)C)nc(N2CCOCC2)n1,"inconclusive: 10 µM [rising, partial curve]",–

SMILES,Potency,"activity change, negative = inhibition"
Brc1ccc2oc3c(N4CCOCC4)ncnc3c2c1,"inconclusive: 3.98 µM [rising, partial curve]",–
O=C(Cn1c(C(=O)NCc2ccco2)cc2sccc21)c1ccccc1,–,inconclusive: -21.5%
O=c1[nH]c(Cn2nnc(-c3ccccc3)n2)nc2scc(-c3ccccc3)c12,"inconclusive: 5.01 µM [falling, single point]",–
CC1=C/C(=C(/c2ccc(O)c(C)c2)c2ccccc2C(=O)O)C=CC1=O,–,inactive: -10.1% [at 7.6 µM]
COc1cccc2c(=O)c(C(=O)NCc3cccs3)c[nH]c12,–,inconclusive: 23.5%
N#CC(c1nc2ccccc2nc1N1CCCCC1)S(=O)(=O)c1ccc(Cl)cc1 (configuration not stated),–,inactive
CC(C)NC(=O)COC(=O)c1ccc(O)cc1,–,inconclusive: -9.48%
O=C(CSc1nc2ccccc2c(=O)n1Cc1ccco1)c1ccccc1,–,inactive
COc1ccc(-c2noc(COc3ccc4c(c3)OCO4)n2)cc1OC,–,inconclusive: 27.8%
CC(=O)c1cccc(-n2nnnc2SCC(=O)Nc2cccc(NC(=O)c3ccco3)c2)c1,–,inactive
CN1CCN(c2ncc3nc(-c4cccc(C#N)c4)c(=O)n(Cc4ccc(F)cc4)c3n2)CC1,"inconclusive: 2.51 µM [rising, full curve]",–
COc1ccc2[nH]cc(CCNc3cc(-c4cccnc4)ncn3)c2c1,–,inconclusive: 12.1%
CC(=O)OC1CC(C)OC(C)O1 (configuration not stated),–,inactive
COc1ccc(N2CCCn3c2nc2c3c(=O)n(CCc3ccccc3)c(=O)n2C)cc1,"inconclusive: 2.51 µM [rising, partial curve]",–
Cc1c(C)c2ccc(OCc3ccc(C(=O)O)o3)c(C)c2oc1=O,"inconclusive: 12.6 µM [rising, single point]",–
CCOC(=O)C1CCN(c2ncnc3c2oc2ccccc23)CC1,–,inconclusive: 18.3%
COc1ccc(-c2noc(-c3cc(Cl)ccc3Cl)n2)cc1OC,–,inconclusive: -1.09%
O=C(O)CSc1ncn[nH]1,–,inactive
Cc1cc(NC(=O)c2cccnc2)ccc1NC(=O)c1ccco1,–,inactive
CCCSc1nnc(N2C(=O)CC(c3ccsc3)C3=C2CCCC3=O)s1 (configuration not stated),"inconclusive: 10 µM [rising, single point]",–
C[N+](C)(C)c1ncnc2c1ncn2[C@@H]1C[C@H](O)[C@@H](CO)O1,–,inactive: -2.54% [at 7.6 µM]

SMILES,Potency,"activity change, negative = inhibition"
Cc1cc(=O)n2nc(N3CCCC(C(=O)NCCCN4CCc5ccccc5C4)C3)sc2n1 (configuration not stated),–,inactive
COC(=O)c1ccc2c(=O)[nH]c(CN3c4ccccc4CC3C)nc2c1 (configuration not stated),–,inconclusive: -13.2%
Cc1nc2c(C(=O)NCCC3=CCCCC3)c[nH]n2c(=O)c1Cl,"inconclusive: 0.251 µM [rising, partial curve]",–
Oc1ccc2c(c1)oc1cc(O)ccc12,–,inconclusive: 18.1% [cytotoxic]
CCOc1ccccc1N(CC(=O)NC1CCCCC1)S(C)(=O)=O,"inconclusive: 0.01 µM [rising, full curve, poor fit]",–
CC(=O)NC(C)(C)C1CC=C(C)/C(=N\O)C1 (configuration not stated),–,inactive
CCn1c(=O)cc(OCC(=O)N(C)C2CCCCC2)c2ccccc21,"inconclusive: 10 µM [rising, single point]",–
COc1ccc2[nH]c(C)c(CCN3C(=O)C4C5C=CC(C5)C4C3=O)c2c1 (configuration not stated),–,inactive
Oc1[nH]c2ccccc2c1C=Nc1ccc2c(c1)OCCO2,–,inactive
CN(Cc1c(F)cccc1Cl)c1nnnn1-c1ccccc1,–,inactive
COc1cc2c(cc1NC(=O)CN1CCN(S(=O)(=O)c3ccc(F)cc3)CC1)oc1ccccc12,–,inconclusive: 8.86%
CCOC(=O)C1=C(C)NC2=C(C(=O)CCC2)C1c1ccc(N(C)C)cc1 (configuration not stated),–,inactive
c1ccc2c(c1)CCN(c1nc3ccccc3n3cnnc13)C2,active: 0.398 µM,–
C=CCn1c(NCCc2ccccc2)nc2c1c(=O)n(C)c(=O)n2C,"inconclusive: 10 µM [rising, partial curve]",–
COC(=O)CSc1nnc(CNC(=O)Cc2ccccc2)n1C,–,inconclusive: 4.58%
C[C@H]1[C@H](NC(=O)/C(=N/OC(C)(C)C(=O)O)c2csc(N)n2)C(=O)N1S(=O)(=O)O (stereo in doubt),–,inactive
c1ccc2nc3c(nc2c1)sc1nc2ccccc2n13,–,inactive
Cc1cnc(CNc2nc(-c3ccccc3C)nc3ccccc23)cn1,–,inconclusive: 30.5%
COc1cc2cc3c4c(cc(OC)c(OC)c4c2cc1OC)CCN3C,active: 0.794 µM,–
CNC(=O)c1cc2cc(Cl)cc(OC)c2oc1=O,–,inconclusive: 18%
O=C(Nc1c(F)cc(F)cc1Br)c1ccco1,–,inconclusive: 29.6%

SMILES,Potency,"activity change, negative = inhibition"
COC(=O)C1=[N+]([O-])OC(C(=O)OC)C1c1c[nH]c2ccccc12 (configuration not stated),–,inconclusive: -22.5%
COC(=O)c1cc(NC(=O)c2ccoc2C)cc(C(=O)OC)c1,"inconclusive: 12.6 µM [rising, single point]",–
COc1cc(S(=O)(=O)N(Cc2ccc(C)cc2)C2CCCCC2)ccc1-n1cnnn1,–,inconclusive: 23%
COc1cccc2cc(-c3csc(CCn4nc(C)cc4C)n3)c(=O)oc12,"inconclusive: 0.0794 µM [falling, single point]",–
C=CS(=O)(=O)c1ccc(Oc2ccc(S(=O)(=O)C=C)cc2)cc1,–,inconclusive: -23%
COC(=O)[C@@]1(Cc2ccc(OC)cc2)[C@H]2c3cc(C(=O)N4CCCC4)n(Cc4ccc(OC)c(OC)c4)c3C[C@H]2CN1C(=O)c1ccccc1,–,inconclusive: 5.89%
CCOc1ccc2nc(NC(=O)C3CCCN(S(=O)(=O)c4c(C)noc4C)C3)sc2c1 (configuration not stated),–,inactive
O=S(=O)(c1ccc2oc(-c3ccncc3)nc2c1)c1ccc2oc(-c3ccncc3)nc2c1,–,inconclusive: 19.2%
CC1(C)CC(CCNC(=O)c2ccco2)CC(C)(C)N1,–,inactive
CC(C)Oc1ccc2c(=O)c3cc(C(=O)O)ccc3oc2c1,–,inactive
CCOCC(=O)Nc1c(C(=O)Nc2ccc(OC)cc2OC)oc2ccccc12,–,inactive
CC(=O)NCCNc1nc(-c2ccccc2C(F)(F)F)nc2ccccc12,–,inconclusive: 20.4%
CCOC(=O)CSc1nc(C2CC2)nc2ccccc12,–,inactive
CCn1cc(C(=O)NCc2ccccc2OC)c(=O)c2cc(S(=O)(=O)N(C)C)ccc21,"inconclusive: 2 µM [rising, full curve, poor fit]",–
CC(=O)Oc1ccc2cc(-c3nc4ccccc4n3C)c(=O)oc2c1,"inconclusive: 2 µM [rising, full curve]",–
CS(=O)(=O)Nc1cccc(-c2ccc3ncnc(NCc4cccnc4)c3c2)c1,"inconclusive: 12.6 µM [rising, partial curve]",–
CCCn1c(-c2ccc(F)cc2)nc2c(N3CCN(CCn4ccnc4)CC3)nc(C)nc21,–,inconclusive: 10.4%
CCn1c(SCC(=O)Nc2cc(C)on2)nc2sc3c(c2c1=O)CCCC3,"inconclusive: 1.58 µM [rising, partial curve]",–
Nc1nc(-c2ccco2)nn1C(=O)c1cccnc1,–,inconclusive: 4.03%

# — PubChem BioAssay AID662 (National Center for Advancing Translational Sciences (NCATS), 2007)
